Measured values published in the supplement of paper PMC10126150.
Sequences with one replicate were seen in a single cluster, so their values are uncertain.

What follows are sequences tested on ATP (assay: switch fluorescence ratio, 500 uM ATP over buffer (Cy3 cluster intensity, sum of 5 cycles each) (fold (ratio)); higher = stronger signal-on switching upon ATP binding; sequences stand for … in TCGTCGGCAGCGTCAGATGTGTATAAGAGACAGTTTTTTTTTTTTTTTTTTTTTTTTT…TC). Conditions: aptamer strand: ATP DNA aptamer (quencher-CACCTGGGGGAGTATTGCGGAGGAAGG + anchor), 100 nM annealed; ATP concentration: 500 uM; one replicate.
Method in brief: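 Exposure to 500 uM ATP lasted 15 min at 22 °C before imaging, and a selection-buffer image was taken beforehand, for Cy3-labelled switching-strand clusters on a modified Illumina MiSeq flow-cell annealed to 100 nM quencher-labelled ATP aptamer. Five buffer/ATP cycles were run with NaOH stripping and re-annealing between them. The fluorescence ratio per cluster is summed target-cycle over summed buffer-cycle Cy3 intensity, averaged per switch-domain sequence. Clusters outside 100-1000 RFU were excluded.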
CTGAGACTGA showed a switch fluorescence ratio of 1.01. CTGAGGGATA showed a switch fluorescence ratio of 1.08. CTGAGTATAA showed a switch fluorescence ratio of 1.05. Sequence CTGAGTTAGG has a switch fluorescence ratio of 0.973. CTGATACCTG showed a switch fluorescence ratio of 1.03. CTGATCGGGA showed a switch fluorescence ratio of 1. Work on CTGATCTGAA yielded a switch fluorescence ratio of 0.976. Sequence CTGATCTTGT has a switch fluorescence ratio of 1. For CTGATGCGTA, the switch fluorescence ratio was 1.07. CTGATGGGAG gave a switch fluorescence ratio of 1.03. For CTGATGTTTC, the switch fluorescence ratio was 1.03. With CTGATTGTAA the switch fluorescence ratio was 1.04. CTGATTTTA showed a switch fluorescence ratio of 0.987. Work on CTGCAAAGTT yielded a switch fluorescence ratio of 1.08. For CTGCAAGTAG, the switch fluorescence ratio was 2.25. In the case of CTGCAATCCG, the switch fluorescence ratio is reported as 2.15. CTGCACGGTG showed a switch fluorescence ratio of 1.09. Work on CTGCAGATGG yielded a switch fluorescence ratio of 1.09. For CTGCCAATCG, the switch fluorescence ratio was 1.24. For CTGCCCTCGG, the switch fluorescence ratio was 1.06. Work on CTGCCGCCGC yielded a switch fluorescence ratio of 3. CTGCGATAAG gave a switch fluorescence ratio of 1.21. CTGCGGCTCA gave a switch fluorescence ratio of 1.04. Work on CTGCGGGATC yielded a switch fluorescence ratio of 1.25. Work on CTGCGTCAG yielded a switch fluorescence ratio of 0.995. CTGCGTTAGG gave a switch fluorescence ratio of 1.04. Sequence CTGCTAAATT has a switch fluorescence ratio of 1.04. Work on CTGCTCGCTG yielded a switch fluorescence ratio of 1.15. CTGCTCTGTT gave a switch fluorescence ratio of 1.03. With CTGCTGCACT the switch fluorescence ratio was 1.19. CTGCTTCATC was tested, and the switch fluorescence ratio was 1.03. With CTGCTTCCCA the switch fluorescence ratio was 1.03. CTGGACCATT was tested, and the switch fluorescence ratio was 1.01. For CTGGACGACG, the switch fluorescence ratio was 1.01. CTGGACTAG was tested, and the switch fluorescence ratio was 0.944. Sequence CTGGACTATG has a switch fluorescence ratio of 0.978. For CTGGACTTAT, the switch fluorescence ratio was 0.947. Work on CTGGAGCGCC yielded a switch fluorescence ratio of 1.6. CTGGAGTCA showed a switch fluorescence ratio of 1.27. In the case of CTGGAGTTA, the switch fluorescence ratio is reported as 1.21. Sequence CTGGATGCCG has a switch fluorescence ratio of 0.91. With CTGGATTTTC the switch fluorescence ratio was 1. CTGGCATTCG was tested, and the switch fluorescence ratio was 1.06. In the case of CTGGCATTGT, the switch fluorescence ratio is reported as 1. CTGGCCGGAT was tested, and the switch fluorescence ratio was 1.07. CTGGCCGGTG showed a switch fluorescence ratio of 1.01. CTGGCGATTG was tested, and the switch fluorescence ratio was 1. In the case of CTGGCGCCCG, the switch fluorescence ratio is reported as 0.993. In the case of CTGGCTAGGA, the switch fluorescence ratio is reported as 0.967. Work on CTGGGAAAAT yielded a switch fluorescence ratio of 0.999. With CTGGGCAAAG the switch fluorescence ratio was 1.13. Sequence CTGGGCAATC has a switch fluorescence ratio of 1.5. CTGGGGATGA showed a switch fluorescence ratio of 0.982. CTGGGGTTCT gave a switch fluorescence ratio of 1.03. CTGGGTAGTT was tested, and the switch fluorescence ratio was 0.997. CTGGGTGATG gave a switch fluorescence ratio of 0.985. CTGGGTTCAT showed a switch fluorescence ratio of 0.982. For CTGGTAGACC, the switch fluorescence ratio was 1. CTGGTAGCAC showed a switch fluorescence ratio of 1.75. Sequence CTGGTAGTAC has a switch fluorescence ratio of 1.52. CTGGTCACGA gave a switch fluorescence ratio of 0.997. CTGGTCTACG was tested, and the switch fluorescence ratio was 0.968. CTGGTCTCTC gave a switch fluorescence ratio of 1. In the case of CTGGTTCATC, the switch fluorescence ratio is reported as 0.984. Sequence CTGTAATCAG has a switch fluorescence ratio of 0.972. For CTGTACGCAC, the switch fluorescence ratio was 3.16. CTGTAGAGC gave a switch fluorescence ratio of 1.07. In the case of CTGTAGGGAA, the switch fluorescence ratio is reported as 1.01. With CTGTAGGTGA the switch fluorescence ratio was 1.1. CTGTCAGGGC gave a switch fluorescence ratio of 1.12. Sequence CTGTCCAGCG has a switch fluorescence ratio of 1.03. With CTGTCGTAAG the switch fluorescence ratio was 1.05. CTGTCTACGG showed a switch fluorescence ratio of 1.01. Sequence CTGTCTGCAC has a switch fluorescence ratio of 1.79. Sequence CTGTCTGTCT has a switch fluorescence ratio of 1.02. CTGTGACATC showed a switch fluorescence ratio of 1.03. CTGTGCGGGT showed a switch fluorescence ratio of 0.993.
